# Laboratory results published in PMC4336329 (PLoS ONE, 2015).
# The whole screen tested about 310,000 compounds, of which about 14,000 (4.5%) showed an effect of 50% or more. The effect is printed as a negative number. Some of the results follow.
# Target: human ether-à-go-go-related gene (hERG) potassium channel (human, UniProt Q12809)
# Test: primary screen, population patch clamp on CHO cells stably expressing hERG
# 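Also: peak tail current of the secondary pulse compared with the same well before compound.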
# Chain of human ether-à-go-go-related gene (hERG) potassium channel (Q12809 whole entry, looked up): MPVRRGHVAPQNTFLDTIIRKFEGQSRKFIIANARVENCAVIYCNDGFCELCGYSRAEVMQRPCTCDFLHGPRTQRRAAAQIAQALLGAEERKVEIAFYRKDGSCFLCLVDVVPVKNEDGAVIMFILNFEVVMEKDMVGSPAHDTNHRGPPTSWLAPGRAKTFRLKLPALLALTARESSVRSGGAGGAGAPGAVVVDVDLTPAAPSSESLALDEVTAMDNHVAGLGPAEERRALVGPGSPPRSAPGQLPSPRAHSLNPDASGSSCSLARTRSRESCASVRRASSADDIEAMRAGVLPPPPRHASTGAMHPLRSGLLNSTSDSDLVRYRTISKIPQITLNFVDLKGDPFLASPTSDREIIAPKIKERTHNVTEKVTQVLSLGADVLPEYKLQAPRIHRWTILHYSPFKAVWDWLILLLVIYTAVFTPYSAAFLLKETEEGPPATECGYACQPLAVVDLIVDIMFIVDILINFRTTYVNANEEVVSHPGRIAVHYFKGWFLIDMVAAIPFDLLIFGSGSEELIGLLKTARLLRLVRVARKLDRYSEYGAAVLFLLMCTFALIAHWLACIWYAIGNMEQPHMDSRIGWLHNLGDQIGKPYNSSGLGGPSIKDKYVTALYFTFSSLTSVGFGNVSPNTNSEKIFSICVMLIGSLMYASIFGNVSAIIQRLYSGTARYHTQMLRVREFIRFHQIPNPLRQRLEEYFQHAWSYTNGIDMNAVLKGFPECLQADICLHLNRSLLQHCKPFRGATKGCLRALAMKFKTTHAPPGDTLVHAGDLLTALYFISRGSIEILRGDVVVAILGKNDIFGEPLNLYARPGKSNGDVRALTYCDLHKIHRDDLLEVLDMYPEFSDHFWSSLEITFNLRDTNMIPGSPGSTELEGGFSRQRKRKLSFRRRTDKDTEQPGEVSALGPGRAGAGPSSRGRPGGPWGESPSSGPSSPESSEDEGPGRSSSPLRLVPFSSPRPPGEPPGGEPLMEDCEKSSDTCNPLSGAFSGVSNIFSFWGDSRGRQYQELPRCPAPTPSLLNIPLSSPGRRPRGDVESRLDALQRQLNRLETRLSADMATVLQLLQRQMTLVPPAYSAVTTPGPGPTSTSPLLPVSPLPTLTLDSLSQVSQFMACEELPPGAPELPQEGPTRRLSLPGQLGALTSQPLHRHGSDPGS
row,SMILES,"hERG current change (%, negative = inhibition) at 10uM [%]"
1,COc1cc2[nH]c(=S)nc(NCCCOC(C)C)c2cc1OC,-16.6
2,CCC(C)c1cc(S(=O)(=O)N2CCOCC2)ccc1OC (centres unmarked),-12.8
3,Cc1nc2ccccc2n1C(=O)c1cc(-c2ccc(Br)cc2)nc2ccccc12,15
4,COc1ccc(CN2CCC(N(CCc3ccccc3)Cc3ccccc3)CC2)c(OC)c1.O=C(O)C(=O)O,-74.5
5,O=C(Nc1ccc2c(c1)OCO2)N1CCN(c2cccc(C(F)(F)F)c2)CC1,-1.15
6,COC(=O)NNC(=O)Cc1cccc2ccccc12,2.94
7,COc1ccc(/C=N/NC(=O)c2cccc(Br)c2)cc1CSc1ccccn1,2.67
8,COc1cc(C(=O)NCc2nnc(SCC(=O)N3CCC(C)CC3)o2)cc(OC)c1OC,3.18
9,O=C(COC(=O)c1cccc(S(=O)(=O)N2CCOCC2)c1)Nc1ncc(Cl)cc1Cl,-13.4
10,CCC(C)N(C(=O)COC(=O)C1CCN(S(=O)(=O)c2ccc(C)c(C)c2)CC1)C1CCS(=O)(=O)C1 (centres unmarked),-33.3
11,CCc1c(C)nc(N2CCN(c3ccc(Cl)cc3)CC2)[nH]c1=O,13.4
12,COc1ccc(C(=O)NCc2cccc(Cl)c2)cc1S(=O)(=O)N1CCOCC1,-36.8
13,CCC(C)(C)c1ccc(OCCCC[n+]2cccc(C)c2C)c(C(C)(C)CC)c1.[Br-],-75.8
14,CCC(=O)N1CCc2cc(Br)cc(S(=O)(=O)CCC(=O)NCc3ccco3)c21,-12.3
15,O=C(Nc1ccc(F)cc1F)NC1CC(=O)N(Cc2ccccc2)C1 (centres unmarked),5.99
16,C/C(=N\OCC(=O)Nc1ccc(OC(F)(F)F)cc1)c1ccc2c(c1)OCCO2,9.94
17,CC(=O)Nc1ccc(SC[C@H](C)CN2CC[C@H](O)CCC2=O)cc1,11.7
18,CCc1ccccc1NC(=O)c1ccc(S(=O)(=O)NCC2CCCO2)cc1 (centres unmarked),8.85
19,Cc1ccccc1-c1nc(CN2CCC(C(=O)NCc3cccs3)CC2)c(C)o1,-70.5
20,CCC(CC)c1nnc(NC(=O)C2=NNC(=O)CC2)s1,13.7
21,CC(=O)c1cccc(NC(=O)CCS(=O)(=O)c2cccc3nonc23)c1,-13
22,COc1cc(NC(=O)CN2c3ccccc3CC2C)cc(OC)c1OC (centres unmarked),9.12

row,SMILES,"hERG current change (%, negative = inhibition) at 10uM [%]"
1,Cc1ccc(S(=O)(=O)CNC(=S)c2ccc3ccccc3c2)cc1,-4.27
2,Cc1ccc(-n2c(Cn3c(C)nc4ccccc43)n[nH]c2=S)cc1,10
3,COc1ccc(Cl)cc1NC(=O)CN(C)C(=O)c1cc(-c2cccs2)nn1-c1ccccc1,-4.03
4,Cn1c2c(c3ccccc31)CC/C2=N\O,-1.23
5,O=S(=O)(/N=C(/Sc1ccccc1)c1ccccc1)c1ccccc1,14.2
6,Cc1noc(C)c1COC(=O)c1ccccc1NC(=O)Cc1ccccc1,-30.8
7,CC(OC(=O)c1ccccc1O)C(=O)Nc1ccc(Cl)cn1 (centres unmarked),-12.4
8,COc1ccc(-c2csc(NC(=O)CSc3n[nH]c(N)n3)n2)cc1,7.57
9,COc1ccc(O)c(C(=O)C2c3ccccc3C(=O)N2c2ccc(C)cc2)c1 (centres unmarked),2.06
10,Cc1ccc(/C=C/C(=O)Nc2sc3c(c2C#N)CCCC3)o1,10.8
11,Cc1[nH]c2ccccc2c1/C=N/NC(=O)c1cccs1,47.5
12,CCN(CCCNC(=O)c1cn(CC)c2ccc(S(=O)(=O)N(C)C)cc2c1=O)c1cccc(C)c1,-9.72
13,CCCCN1CNC(=S)N(Cc2ccccc2)C1,-0.788
14,O=C(CSc1ccc2nnc(-c3ccccc3)n2n1)NCc1ccco1,-72.2
15,Cc1ccc(C)c(N2CCN(C(=O)c3ccc(CS(=O)Cc4cccc(Cl)c4)o3)CC2)c1 (centres unmarked),-6.6
16,O=S(=O)(c1ccc(Cl)nc1)N1CCCc2ccccc21,-15.5
17,COc1cc([N+](=O)[O-])ccc1NC(=O)NCc1ccco1,10.9
18,CC(C)CCC(O)(CCC(C)C)C(=O)NN1CCCCC1,6.04
19,O=C(COC(=O)Cn1nnc2ccccc21)NC1CCCC1,13.1
20,Cc1cccc(NC(=O)COc2ccc(Br)cc2)n1,5.02
21,NC(=O)C1CCCN(S(=O)(=O)c2ccccc2)C1 (centres unmarked),15.4
22,COc1cc2c(cc1OC)C(c1cc3cc(C)ccc3[nH]c1=O)N(C(=O)c1ccco1)CC2 (centres unmarked),-10.8

row,SMILES,"hERG current change (%, negative = inhibition) at 10uM [%]"
1,COc1ccccc1N(CC(=O)NC(C)(C)C)C(=O)CCC(=O)Nc1ccccn1,14.2
2,S=c1[nH]nc(-c2cccnc2)n1Cc1ccccc1,8.29
3,O=C(NCc1cccnc1)Nc1ccc(F)cc1F,-4.58
4,COc1ccc(C(CNC(=O)c2ccco2)N2CCOCC2)cc1 (centres unmarked),5.49
5,Cc1ccsc1CN(C(=O)c1ccccc1)C1CCS(=O)(=O)C1 (centres unmarked),2.16
6,O=[N+]([O-])c1cc(S(=O)(=O)[O-])cc([N+](=O)[O-])c1NN(c1ccccc1)c1ccccc1.[K+],12
7,CC(=O)NCCC(=O)Nc1cc(S(=O)(=O)N2CCOCC2)ccc1Oc1ccc(F)cc1,-30.5
8,CS(=O)(=O)c1ccc(C(=O)NC(Cc2ccccc2)c2ccccc2)cc1 (centres unmarked),3.93
9,CCn1c(O)c(C=Nc2ccccc2)sc1=S,8.74
10,CCN(CC)CCC(C)OC(c1ccccc1)c1ccccc1.O=C(O)CC(O)(CC(=O)O)C(=O)O (centres unmarked),-52.2
11,COCc1cc(C)nc2sc(C(=O)OC(C)C)c(N)c12,-22.3
12,CC(C)(C)OC(=O)CNC(=O)c1[nH]cnc1C(=O)NC(c1ccccc1)c1ccccc1,-21.4
13,CCCOc1ccc(-c2cc(C(=O)NCC3CCCO3)c3ccccc3n2)cc1 (centres unmarked),-13.8
14,CN(Cc1ccccc1)C(=O)Cn1c(=O)c2cccn2c2cccnc21,-27
15,NC(=O)c1ccsc1NC(=O)CSc1nnc(Nc2ccccc2)s1,12.8
16,Cc1c(NC(=O)C(C)OC(=O)[C@@H](NC(=O)c2ccccc2)C(C)C)c(=O)n(-c2ccccc2)n1C (some centres unmarked),-4.56
17,O=C(Nc1ccc(NC(=O)c2cccs2)cn1)c1ccco1,8.01
18,O=C(Nc1ccccc1C(=O)NCc1cccnc1)c1ccccc1F,9.87
19,COC(=O)[C@H](Cc1ccccc1)NC(=O)C1CCN(C(=O)[C@H](C)NS(=O)(=O)c2ccc(C)cc2)CC1,2.58
20,NC12CN3CN(CN(C3)C1)C2.O=C(O)c1cccnc1,9.94
21,COc1ccc(C(=O)Nn2cnnc2)c(OC)c1,5.94
22,COc1ccc(C2=C(C=C(C#N)C#N)C(c3ccccc3C)c3ccccc3O2)cc1OC (centres unmarked),-0.421

row,SMILES,"hERG current change (%, negative = inhibition) at 10uM [%]"
1,O=C(N/C(=C/c1cccs1)C(=O)N1CCOCC1)c1ccccc1,19.2
2,CC1CN(C(=O)c2ccc(Oc3ccccc3)cc2)CC(C)O1 (centres unmarked),-5.69
3,COc1ccccc1NC(=O)C(=O)NCc1ccncc1,-5.14
4,CN(Cc1ccccc1)C(=O)c1nc2ccccn2c1CNCCn1cccn1,-32.3
5,COc1ccc(-c2cc(C(=O)Nc3ccc(OC)cc3OC)no2)cc1,15.5
6,Cn1c(O)c(C=NCCOc2ccc(Cl)cc2)c(=O)n(C)c1=O,-14.9
7,CC(=O)Cc1nnn(-c2cc(C)on2)n1,36.4
8,COc1cccc(NC(=O)CCC2CCN(C(=O)c3cncs3)CC2)c1,-2.75
9,CN(C)CCC(=O)C(Cc1ccccc1)c1ccccc1.Cl (centres unmarked),2.91
10,Cc1ccc(C)c(NC(=O)c2ccc[n+](Cc3ccc([N+](=O)[O-])cc3)c2)c1.[Br-],1.79
11,Cc1ccc(CNc2ccc3nnc(-c4ccccc4)n3n2)cc1,15.7
12,CCOc1ccccc1CN1CCN(Cc2ccc(C)o2)CC1CCO (centres unmarked),-37.9
13,O=C(Cn1cnc([N+](=O)[O-])n1)N/N=C/c1ccc(O)cc1O,9.88
14,Cc1ccc[n+](CC(=O)Nc2cccc([N+](=O)[O-])c2)c1.[Cl-],14.1
15,Cc1ccc(S(=O)(=O)Nc2ccc(NC(=O)CN3CCCCC3)cc2)cc1,-4.54
16,CN(Cc1ccccc1)C(=O)COc1cc(=O)n(C)c2ccccc12,-11.1
17,Cc1c(NC(=O)/C(=C/c2cccs2)NC(=O)c2ccccc2)c(=O)n(-c2ccccc2)n1C,15.4
18,COc1ccc(-n2ccnc2CN2CCCC(CO)(Cc3cccc(OC)c3)C2)cc1 (centres unmarked),-24.2
19,COC(=O)C1(C)CN(S(=O)(=O)c2ccc(C)cc2)c2cc(OC)ccc2C1=O (centres unmarked),-16.6
20,Cc1n[nH]c(C)c1S(=O)(=O)N1CCN(c2ccccn2)CC1,3.81
